Measurements as given in PubChem BioAssay AID1645882 (National Center for Advancing Translational Sciences (NCATS), 2021).
Screen size: about 16,000 compounds; about 120 (0.75%) were called active. About 4% were inconclusive and are not listed. Calls follow the shape of the dose curve; as a rule, active = well fitted inhibition curve with a large enough effect; inconclusive = small, poorly fitted or top-dose-only effect; inactive = no such curve, though single readings can be large or run the other way. The list shows a part of the results. Where a SMILES comes first, the peptide text is derived from it.

The compounds below were run against Rap guanine nucleotide exchange factor 3 (Homo sapiens) (UniProt O95398) (assay: Validation qHTS for antagonist of cAMP-regulated guanine nucleotide exchange factor 3 (EPAC1)). Conditions: EPAC1 Rap1B-BODIPY-GDP exchange, fluorescence; activity change, negative = inhibition: at the top concentration.
Outline: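 EPAC1 (100 nM) mixed with 250 nM RAP1B-BODIPY-GDP and 50 uM GDP; compounds in concentration series, 5 min at room temperature. Fluorescence (ex 480/em 540 nm) read every 5 min for 30 min; normalized to ATA control and DMSO.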
Also: nearly all actives have a fitted effect of over 75% in size.
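For activity change, negative = inhibition in this document: plate controls were DMSO for no effect and ATA control for full effect.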
Potency is read from the fitted curve at half-maximal effect.

Sequence of UniProt O95398 (O95398 whole entry, looked up): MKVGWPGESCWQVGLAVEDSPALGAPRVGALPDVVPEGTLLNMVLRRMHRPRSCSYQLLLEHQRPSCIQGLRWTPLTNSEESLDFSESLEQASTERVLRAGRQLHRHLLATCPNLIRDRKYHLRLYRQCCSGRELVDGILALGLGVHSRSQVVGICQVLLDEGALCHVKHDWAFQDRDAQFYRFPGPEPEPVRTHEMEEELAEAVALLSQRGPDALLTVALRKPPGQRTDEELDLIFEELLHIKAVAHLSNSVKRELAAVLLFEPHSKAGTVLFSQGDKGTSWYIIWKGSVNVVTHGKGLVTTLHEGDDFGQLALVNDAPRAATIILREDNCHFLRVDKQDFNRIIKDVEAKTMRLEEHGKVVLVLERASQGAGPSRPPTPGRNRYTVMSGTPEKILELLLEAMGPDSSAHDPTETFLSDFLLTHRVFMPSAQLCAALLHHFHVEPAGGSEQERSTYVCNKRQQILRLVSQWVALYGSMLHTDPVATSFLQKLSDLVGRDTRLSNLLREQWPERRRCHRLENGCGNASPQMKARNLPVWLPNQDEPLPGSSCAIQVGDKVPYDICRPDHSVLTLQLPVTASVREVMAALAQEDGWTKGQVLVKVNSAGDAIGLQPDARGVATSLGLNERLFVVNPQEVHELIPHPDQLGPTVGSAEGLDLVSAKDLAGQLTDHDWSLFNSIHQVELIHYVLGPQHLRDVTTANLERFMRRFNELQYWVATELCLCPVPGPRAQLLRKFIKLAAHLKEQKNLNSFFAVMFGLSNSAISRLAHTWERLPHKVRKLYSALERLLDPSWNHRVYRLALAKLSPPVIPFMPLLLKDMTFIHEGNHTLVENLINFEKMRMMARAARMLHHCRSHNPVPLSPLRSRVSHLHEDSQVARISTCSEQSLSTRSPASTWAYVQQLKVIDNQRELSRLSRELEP

SMILES	activity change, negative = inhibition	Potency
CC1(C)C(O)CC(=O)[C@]2(C)C1CC(=O)[C@]1(C)C2CC[C@@]2(C)C(c3ccoc3)OC(=O)C3O[C@@]321 (stereo partly drawn)	inactive: -4.56%	–
CCN1C[C@@]2(COC(=O)c3ccccc3N3C(=O)CC(C)C3=O)CC[C@H](OC)[C@]34C5C[C@@H]6[C@@H](OC)C[C@@](O)(C5[C@H]6OC)[C@@](O)(C13)[C@@H](OC)C24 (stereo partly drawn)	inactive: 10.8%	–
NCCc1cccc(O)c1	inactive	–
O=C(O)C(Cl)(Cl)Cl	inactive: 6.38%	–
CC(C)Nc1ccc(Nc2ccccc2)cc1	inactive: 5.35%	–
O[C@H]1[C@H]2[C@H](O)CCCN2C[C@H]1O	inactive: 21.7%	–
CNC(=O)NC(O)C(Cl)(Cl)Cl (stereo not drawn)	inactive: 9.2%	–
O=c1ccc2c(O)c3ccoc3cc2o1	inactive: 0.468%	–
O=C(Oc1ccccc1)N1CCC[C@@]2(CCN(Cc3nccs3)C2)C1	inactive: 14.1%	–
Oc1ccc(-c2cccnc2)cc1CNC1CN2CCC1CC2 (stereo not drawn)	inactive: 2.3%	–
NC(=O)CN1CC(O)CC1=O (stereo not drawn)	inactive	–
CCOC(=O)NC(C)(C)Cc1ccc(Cl)cc1	inactive: 11.5%	–
C[C@]12CCC(=O)C[C@@H]1CC[C@@H]1[C@@H]2CC[C@@]2(C)[C@H]1CC[C@]2(C)O	inactive: 34.3%	–
CN1CCC(=O)N(CCN=[N+]=[N-])CC1	inactive: 12.5%	–
CC(=O)OC1CC(OC(C)=O)[C@]2(C)C(CC(OC(C)=O)[C@]3(C)C2CC[C@@]2(C)C(c4ccoc4)C[C@H]4O[C@]432)C1(C)C (stereo partly drawn)	inactive: 7.6%	–
O=C1CC[C@@]2(O)[C@H]3Cc4ccc(O)c5c4[C@@]2(CCN3CC2CC2)[C@@H]1O5	inactive: 7.28%	–
CC(C)[C@@]1(NC(=O)[C@@H]2C[C@H]3c4cccc5[nH]cc(c45)C[C@@H]3N(C)C2)O[C@@]2(O)[C@H]3CCCN3C(=O)[C@H](Cc3ccccc3)N2C1=O	inactive	–
COc1ccn(C)c(=O)c1C#N	inactive: -6.35%	–
CC(CO)NC(=O)C1C=C2c3cccc4[nH]cc(c34)C[C@H]2N(C)C1 (stereo partly drawn)	inactive: 16%	–
Clc1ccccc1Cl	inactive: 10.2%	–
O=C(O)c1cc(Oc2ccc(C(F)(F)F)cc2Cl)ccc1[N+](=O)[O-]	inactive: 12.7%	–
Cc1ncc2n1-c1ccc(Cl)cc1C(c1ccccc1F)=NC2	inactive: 20%	–
C[N+](C)(C)CC#CCN1CCCC1=O	inactive	–
CCOC(=O)CN1C(=O)CC(C[C@@H](O)C2C[C@@H](C)C[C@H](C)C2=O)CC1=O (stereo partly drawn)	inactive: 4.09% [at 201 µM]	–
Nc1ccc(Sc2ccc(N)cc2)cc1	inactive: 15.8% [at 320 µM]	–
NNCc1ccccc1	inactive: 4.52%	–

SMILES	activity change, negative = inhibition	Potency
NC(=O)c1ccc(OCC(O)CN2CC=C(c3ccc(F)cc3)CC2)cc1 (stereo not drawn)	inactive: -2.16% [at 75.8 µM]	–
CC(C)=CC1C(C(=O)OCc2cccc(Oc3ccccc3)c2)C1(C)C (stereo not drawn)	inactive: 9.26%	–
CC[C@]1(O)CC(O[C@@H]2CC(N(C)C)C(O)C(C)O2)c2c(cc3c(c2O)C(=O)c2c(O)ccc(O)c2C3=O)C1C(=O)OC (stereo partly drawn)	inactive: 22.5%	–
COc1ccc(CNC(=O)/C=C/c2ccc3[nH]cc(CCN(C)C)c3c2)cc1	inactive: -0.353% [at 75.8 µM]	–
COC1C(O)C(C)O[C@H](OC2CC[C@@]3(C=O)C4CC[C@]5(C)C(C6=CC(=O)OC6)CC[C@@]5(O)C4CC[C@@H]3C2)C1O (stereo partly drawn)	inactive: -2.7%	–
C[C@]12[C@H](O)CC3C(CC[C@@H]4C[C@@H](O)CC[C@]34C)[C@@]1(O)CC[C@@H]2C1=CC(=O)OC1 (stereo partly drawn)	inactive: 10.4%	–
CO/C=C(/C(=O)OC)c1ccccc1Oc1cc(Oc2ccccc2C#N)ncn1	inactive: 16.3% [at 320 µM]	–
CC[C@]1(O)CC(O[C@@H]2CC(N(C)C)C(O)C(C)O2)c2c(cc3c(c2O)C(=O)c2c(O)cccc2C3=O)C1C(=O)OC (stereo partly drawn)	inactive: 2.61%	–
CN=C1CN(O)C(c2ccccc2)=c2cc(Cl)ccc2=N1	inactive	–
COc1ccccc1CN1CCCC2(CCN(C(=O)Oc3ccccc3)CC2)C1	inactive: 15.5%	–
Nc1ccncc1	inactive	–
CC[C@H](C)[C@H](NC(=O)[C@H](CCCN=C(N)N)NC(=O)[C@H](CCCN=C(N)N)NC(=O)[C@H](CC(C)C)NC(=O)[C@H](Cc1ccccc1)NC(=O)CNC(=O)CNC(=O)[C@@H](N)Cc1ccc(O)cc1)C(=O)N[C@@H](CCCN=C(N)N)C(=O)N1CCC[C@H]1C(=O)N[C@@H](CCCCN)C(=O)N[C@@H](CC(C)C)C(=O)N[C@@H](CCCCN)C(=O)O	inactive: 11.5% [at 15.3 µM]	–
C[N+]1(CCF)[C@@H]2CC[C@H]1CC(OC(=O)C(O)(c1ccccc1)c1ccccc1)C2 (stereo partly drawn)	inactive: 11.3%	–
NC1(c2ccccc2)CCCCC1	inactive: 11.5% [at 320 µM]	–
O=C(O)CNCP(=O)(O)O	inactive: 13.1%	–
C[N+]1(C)CCOC(O)(c2ccc(-c3ccc(C4(O)C[N+](C)(C)CCO4)cc3)cc2)C1 (stereo not drawn)	inactive	–
O=C1CC[C@@]2(O)C3Cc4ccc(O)c5c4C2(CCN3CC2CC2)[C@H]1O5 (stereo partly drawn)	inactive: 2.27% [at 75.8 µM]	–
c1csc(CN2CCCC3(CCNCC3)C2)n1	inactive: 13%	–
CCN1C[C@]2(COC)CC[C@H](OC)[C@@]34C5C[C@@H]6[C@@H](OC)C[C@@]7(OCO[C@@]7([C@@H](O)C23)[C@@H]14)C5[C@H]6OC (stereo partly drawn)	inactive: 19.9%	–
CN(C)Cc1c[nH]c2ccccc12	inactive	–
c1cncc(C2CCCCN2)c1 (stereo not drawn)	inactive	–
CC(N)Cc1ccc2c(c1)OCO2 (stereo not drawn)	inactive: -7.15%	–
CO[C@H]1CC=C2CCN3CCC4=C(CC(=O)OC4)[C@]23C1	inactive	–
c1cc(CN2CCCC3(CCNCC3)C2)ccn1	inactive: 9.4%	–
COc1cc(C2c3cc4c(cc3C(OC(C)=O)[C@H]3COC(=O)C23)OCO4)cc(OC)c1OC (stereo partly drawn)	inactive	–
N[C@]1(C(=O)O)CC[C@@H](C(=O)O)C1 (racemic)	inactive	–

SMILES	activity change, negative = inhibition	Potency
COc1cc2c(cc1OC)-c1c(OC)c(OC)c(CO)c3c1C(C2)N(C)CC3 (stereo not drawn)	inactive: -16.7%	–
Cl.Cl.Cl.Cl.Cl.Cl.N.N.N.N.NNNNN.NNNNN.O.O.[Ru].[Ru].[Ru]	–	active: 89.1 µM
CN1CCCCC1c1cccnc1 (stereo not drawn)	inactive: 11.2%	–
C[C@]12CC[C@@H]3[C@@H](CCC4=CC(=O)CC[C@@H]43)[C@@H]1CC[C@@H]2OC(=O)CCc1ccccc1	inactive: 6.52%	–
C=CCN1CCc2cccc3c2C1Cc1ccc(O)c(O)c1-3 (stereo not drawn)	inactive: -4.7%	–
CN1C2CC(OC(=O)C(CO)c3ccccc3)CC1C(O)C2 (stereo not drawn)	inactive: 11%	–
CC[C@@H](CO)NC(=O)[C@H]1C=C2c3cccc4[nH]cc(c34)C[C@H]2N(C)C1	inactive: 4.25%	–
COc1ccc(OC)c(CC(C)N)c1 (stereo not drawn)	inactive: 23% [at 320 µM]	–
CC(C(=O)OC1CC2CCC(C1)N2C)c1ccc(Br)cc1 (stereo not drawn)	inactive: 11.5%	–
O=C1CCCC2C3CC(CN12)C1CCCCN1C3 (stereo not drawn)	inactive: -3.72%	–
N[C@H](C(=O)O)c1cc(=O)[nH]o1	inactive: -2.88%	–
CCCCCl	inactive: 3.8%	–
COC(=O)[C@]1(C)CC[C@@]2(C)CC[C@@]3(C)C4=CCc5c(cc(O)c(O)c5C)[C@]4(C)CC[C@@]3(C)C2C1 (stereo partly drawn)	inactive: -8.3%	–
CN1C(=S)CN=C(c2ccccc2)c2cc(Cl)ccc21	inactive: 1.8%	–
NC(=O)[C@@H]1CCCN1C(=O)[C@H](Cc1ccccc1)NC(=O)[C@@H]1CCCN1C(=O)[C@@H](N)Cc1ccc(O)cc1 (H-YPFP-NH2)	inactive: 22.3% [at 15.3 µM]	–
COc1ccc(C(=O)N2CCCC2=O)cc1	inactive	–
CC(N)[C@H](O)c1ccccc1 (stereo partly drawn)	inactive: 22.5%	–
C=CCN1CCc2cccc3c2[C@H]1Cc1ccc(O)c(O)c1-3	inactive: 7.8% [at 75.8 µM]	–
Cc1[nH]c2ccc(O)cc2c1CCN	inactive	–
COc1nc(NC(C)C)nc(NC(C)C)n1	inactive: -3.88%	–
O=C(c1ccncc1)N1CCC[C@@]2(CCN(Cc3nccs3)C2)C1	inactive: 12.9%	–
COc1cccc(C(=O)CCN[C@@H](C)[C@H](O)c2ccccc2)c1	inactive: 27.4%	–
C#CCOC(C(=O)OCCN(C)C)(c1ccccc1)c1ccccc1	inactive: 12.6%	–
CCC1(c2ccccc2)C(=O)NC(=O)N(C(=O)c2ccccc2)C1=O (stereo not drawn)	inactive: 3.79%	–
CCS(=O)(=O)Nc1cccc(C(=C2CCCCC2)c2cnc[nH]2)c1	inactive: -4.88% [at 75.8 µM]	–
CCCCOC(=O)c1ccccc1C(=O)OCc1ccccc1	inactive: 42.1% [at 320 µM]	–

SMILES	activity change, negative = inhibition	Potency
CC[C@@H](C(N)=O)N1CCCC1=O	inactive: -2.55% [at 75.8 µM]	–
NCC(O)c1cc(O)c(O)cc1F (stereo not drawn)	inactive: -9.59% [at 75.8 µM]	–
O=C(O)CCCc1ccc(N(CCCl)CCCl)cc1	inactive	–
O=C(Nc1cccc(F)c1)N1CCC2(CC1)CCN(C(=O)Oc1ccccc1)CC2	inactive: 2.49%	–
O=C(c1cnccn1)N1CCC2(CC1)CN(Cc1ccncc1)C2	inactive: 17.5%	–
c1ccc2c(c1)OC[C@@H](C1=NCCN1)O2	inactive: 9.42%	–
OCC1OC(n2cnc3cc(Cl)c(Cl)cc32)C(O)C1O (stereo not drawn)	inactive: -9.9%	–
N#Cc1ccc(CN2CC3(CCNCC3)C2)cc1	inactive: 3.42%	–
CN1C(=O)CCS(=O)(=O)[C@H]1c1ccc(Cl)cc1	inactive: -4.72%	–
NCC(CS(=O)(=O)O)c1ccc(Cl)cc1 (stereo not drawn)	inactive: 22.8%	–
C[C@H]1[C@@H]2Cc3ccc(O)cc3[C@@]1(C)CCN2C	inactive: 29.3% [at 606 µM]	–
COc1cc2c(cc1OC)[C@@H]1C(=O)c3ccc4c(c3OC1CO2)CC(C(C)C)O4 (stereo partly drawn)	inactive: -8%	–
N#C/C(=C\c1cccc(O)c1)C(=O)O	inactive: 19.2%	–
COP(=S)(OC)Oc1ccc(SC)c(C)c1	inactive	–
CN(CCc1ccc(Cl)c(Cl)c1)[C@H]1CCCC[C@H]1N1CCCC1	inactive: -5.35%	–
O=c1[nH]c2ccccc2n1CCCN1CCC(n2c(=O)[nH]c3cc(Cl)ccc32)CC1	inactive	–
C[N+](C)(C)CC(=O)O	inactive: 12.4%	–
c1ccc(C2(N3CCCC3)CCCCC2)cc1	inactive: 4.86%	–
O=C(O)COc1nc(Cl)c(Cl)cc1Cl	inactive: 27.6% [at 320 µM]	–
CC1CCCC(=O)CCC/C=C/c2cc(O)cc(O)c2C(=O)O1 (stereo not drawn)	inactive: 7.82%	–
CN1C[C@H](CNC(=O)OCc2ccccc2)C[C@H]2c3cccc4c3c(cn4C)C[C@@H]21	inactive: -0.764%	–
COC1C(O)C(OC2CC[C@]3(C=O)C4C(OC(C)=O)C[C@@]5(C)C(C6=CC(=O)OC6)CC[C@]5(O)C4CC[C@]3(O)C2)OC(C)C1OC(C)=O (stereo partly drawn)	inactive: 1.5%	–
C#C[C@]1(O)CC[C@H]2[C@@H]3CCC4=CC(=O)CC[C@]4(C)[C@H]3CC[C@@]21C	inactive	–
COP(=S)(OC)SCn1nnc2ccccc2c1=O	inactive: 7.86%	–
C[C@H]1CC[C@@H]2[C@@H](C)[C@H]3[C@H](C[C@H]4[C@@H]5CC=C6CC(O[C@@H]7O[C@H](CO)[C@H](O)[C@H](O[C@@H]8O[C@H](CO)[C@@H](O)[C@H](O)[C@H]8O)[C@H]7O[C@H]7O[C@@H](C)[C@H](O)[C@@H](O)[C@H]7O)CC[C@]6(C)[C@H]5CC[C@]34C)N2C1 (stereo partly drawn)	inactive: 8.02%	–
